# From PubChem BioAssay AID1768 (National Center for Advancing Translational Sciences (NCATS), 2009)
# Out of some 270,000 compounds screened, about 620 (0.23%) were called active. This list was built around the results that the source calls inconclusive (neither active nor inactive); the mix of calls is not that of the screen. Calls follow the shape of the dose curve; as a rule, active = well fitted inhibition curve with a large enough effect in the polarisation, with a control signal flat (not every such curve was filed as active); inconclusive = small, poorly fitted or top-dose-only effect, or effect the other way, or a change in a side signal; inactive = no such curve, though single readings can be large or run the other way; the % refers to the polarisation. Potencies beside an inconclusive call are fits to weak or partial responses and may not hold up. “Side channel” marks fits to a control or component signal instead of the main read-out.
# Target: Menin (Homo sapiens) (UniProt O00255)
# Assay: qHTS Assay for Inhibitors Targeting the Menin-MLL Interaction in MLL Related Leukemias: Competition With Texas Red Labeled MLL-derived Mutant Peptide
# Conditions: fluorescence polarization; series mostly up to 61.6 µM
# Potency is read from the fitted curve at half-maximal effect; tags tell the direction and shape of the fitted curve or compound fluorescence and quenching.
# Chain of UniProt O00255 (O00255 whole entry, looked up): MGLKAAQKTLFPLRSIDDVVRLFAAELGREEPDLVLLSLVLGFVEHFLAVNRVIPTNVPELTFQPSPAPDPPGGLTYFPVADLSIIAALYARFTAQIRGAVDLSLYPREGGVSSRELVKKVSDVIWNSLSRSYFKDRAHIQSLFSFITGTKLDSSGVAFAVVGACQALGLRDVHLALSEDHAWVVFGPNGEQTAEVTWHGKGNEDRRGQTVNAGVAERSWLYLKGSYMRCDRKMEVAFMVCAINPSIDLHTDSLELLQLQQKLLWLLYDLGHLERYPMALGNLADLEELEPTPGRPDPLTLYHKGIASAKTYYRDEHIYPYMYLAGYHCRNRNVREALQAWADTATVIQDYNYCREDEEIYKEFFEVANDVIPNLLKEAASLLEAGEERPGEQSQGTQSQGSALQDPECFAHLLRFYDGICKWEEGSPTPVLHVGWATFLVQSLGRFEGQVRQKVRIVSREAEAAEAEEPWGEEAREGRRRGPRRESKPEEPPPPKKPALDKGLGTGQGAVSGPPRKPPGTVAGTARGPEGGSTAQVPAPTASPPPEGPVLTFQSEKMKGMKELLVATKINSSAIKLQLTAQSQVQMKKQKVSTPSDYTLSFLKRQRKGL
row,SMILES,Potency
1,CN(/N=C\c1ccc(O)c(O)c1)c1nc(-c2ccccc2)cc(-c2ccccc2)n1,"inconclusive: 2.51 µM [quencher, side channel, full curve]"
2,O=C(Cc1ccccc1)Nc1ccc(NC(=O)c2ccc(Br)cc2)cc1,"inconclusive: 8.91 µM [inhibitor, partial curve]"
3,CCOc1cccc2sc(N(CCCN(C)C)C(=O)c3ccc(S(=O)(=O)N4CCc5ccccc5C4)cc3)nc12,"inconclusive: 2.24 µM [inhibitor, full curve]"
4,Fc1ccccc1N1CCN(CC2CC3C=CC2C3)CC1 (stereo not given),inactive
5,CCOC(=O)c1c(C)oc2c1c(C=NCCO)c(O)c1ccccc12,"inconclusive: 22.4 µM [inhibitor, partial curve]"
6,O=C(COC(=O)c1c(F)cccc1F)Nc1ccc2[nH]c(=O)[nH]c2c1,"inconclusive: 28.2 µM [quencher, side channel, single point]"
7,O=C(Nc1cccc(-c2nc3ccccc3s2)c1)c1ccc2c(c1)OCO2,"inconclusive: 11.2 µM [inhibitor, single point]"
8,COc1ccc(N2C(=O)CC(N3CCC(O)(c4ccc(Cl)cc4)CC3)C2=O)cc1 (stereo not given),"inconclusive: 7.08 µM [inhibitor, single point]"
9,Cc1ccc(-n2sc3ccccc3c2=O)cc1S(=O)(=O)N1CCCCC1,"inconclusive: 10 µM [inhibitor, partial curve]"
10,NC1=NC2(CCN(Cc3ccccc3)CC2)n2c(nc3ccccc32)N1,"inconclusive: 0.708 µM [inhibitor, full curve, poor fit]"
11,Cc1cc(N/C=C/C(=O)c2ccc(Br)cc2)no1,"inconclusive: 31.6 µM [inhibitor, single point]"
12,c1nc(N2CCNCC2)c2cc(-c3ccc4c(c3)OCO4)ccc2n1,"inconclusive: 14.1 µM [inhibitor, partial curve]"
13,COc1cccc(-c2nnc(NC(=O)c3ccc(S(=O)(=O)N4CCOCC4)cc3)o2)c1,"inconclusive: 17.8 µM [quencher, side channel, single point]"
14,CC(C)N(C(=O)Cn1c(SCC(=O)NCc2ccc3c(c2)OCO3)nc2ccccc21)C(C)C,inactive
15,COCCCn1c(=O)c2ccccc2n(Cc2cccc(C)c2)c1=O,"inconclusive: 39.8 µM [inhibitor, single point]"
16,CCc1cc2cc(C)ccc2nc1SCC(=O)NNC(=O)c1ccco1,"inconclusive: 39.8 µM [fluorescent, side channel, single point]"
17,CCN(CC)c1ccc(/C=N/N2CCN(c3ccccc3OC)CC2)cc1,inactive
18,CN(C)CCNC(=O)c1cc2c(s1)-c1ccc(Cl)cc1SC2,"inconclusive: 39.8 µM [inhibitor, single point]"
19,O=C(CCC(=O)N1CCN(S(=O)(=O)c2ccc(Cl)cc2)CC1)NC1CCCc2ccccc21 (stereo not given),"inconclusive: 39.8 µM [fluorescent, side channel, single point]"
20,Nc1cc(C(=O)c2ccccc2)ccc1N1CCOCC1,inactive

row,SMILES,Potency
1,COCCCNC(=O)Cn1nnc(-c2ccc(NC(=O)c3ccccc3F)cc2)n1,"inconclusive: 39.8 µM [inhibitor, single point]"
2,CC(C)(C)c1ccc(/C=C(\C#N)C(=O)Nc2ccccn2)cc1,"inconclusive: 28.2 µM [quencher, side channel, single point]"
3,CN1C(=O)N(C)C2=NNC=NC2(O)C1=O (stereo not given),"inconclusive: 25.1 µM [quencher, side channel, partial curve]"
4,COc1ccccc1N1CCN(Cc2ccc(OC)c(OC)c2OC)CC1,inactive
5,CN(C)c1ccc(C(=C2C=CC(=[N+](C)C)C=C2)c2c(O)c(S(=O)(=O)[O-])cc3cc(S(=O)(=O)O)ccc23)cc1,"inconclusive: 31.6 µM [quencher, side channel, partial curve]"
6,c1csc(-c2nc3c4ccccc4c4ccccc4c3[nH]2)c1,"inconclusive: 8.91 µM [quencher, side channel, full curve]"
7,C=CCc1cc(/C=C2/NC(=O)NC2=O)cc(OCC)c1O,"inconclusive: 17.8 µM [quencher, side channel, partial curve]"
8,CCc1ccc(OCC(=O)NC(NC(=S)Nc2ccccc2OC)C(Cl)(Cl)Cl)cc1 (stereo not given),"inconclusive: 25.1 µM [inhibitor, single point]"
9,Cn1c(C(=O)N/N=C/c2ccccc2)cc2ccccc21,"inconclusive: 39.8 µM [inhibitor, single point]"
10,O=C(O)C1(c2ccccc2)CCN(S(=O)(=O)c2cccc(Cl)c2)CC1,"inconclusive: 20 µM [quencher, side channel, single point]"
11,Cc1ccc(C)c(NC(=S)NC(C)C(c2ccccc2)N2CCN(C)CC2)c1 (stereo not given),"inconclusive: 39.8 µM [inhibitor, single point]"
12,O=C(NNc1cccc(Cl)n1)Nc1ccc(Cl)cc1,"inconclusive: 25.1 µM [inhibitor, single point]"
13,O=C(Nc1ccc(Cl)cc1F)c1cccc2ccccc12,"inconclusive: 39.8 µM [inhibitor, single point]"
14,c1ccc(-c2nc(-c3ccccc3)c(NC3CCCCC3)o2)cc1,inactive
15,O=C(C[n+]1ccc2ccccc2c1)Nc1cc(C(F)(F)F)ccc1Cl,inactive
16,CNC(=S)N(CCc1c(C)[nH]c2ccc(Cl)cc12)Cc1cccs1,"inconclusive: 8.91 µM [quencher, side channel, full curve]"
17,C=C(C)Cn1c(=O)c2c(nc3n2CCCN3CCc2ccccc2)n(C)c1=O,"inconclusive: 35.5 µM [inhibitor, single point]"
18,C=CCn1c(N)c(C(=O)Nc2ccccc2OC)sc1=S,"inconclusive: 20 µM [quencher, side channel, partial curve]"
19,O=c1[nH]c(C(Cl)(Cl)Cl)nc2ccc3ccccc3c12,"inconclusive: 28.2 µM [quencher, side channel, single point]"
20,Cc1cc(C)c(S(=O)(=O)N2CCCCC2)c(C)c1N(C)S(=O)(=O)c1ccccc1,"inconclusive: 1.78 µM [inhibitor, partial curve, poor fit]"
